In PubChem BioAssay AID624417 (National Center for Advancing Translational Sciences (NCATS), 2012):
Screen size: about 410,000 compounds; about 6,400 (1.6%) were called active. This list was built around the results that the source calls inconclusive (neither active nor inactive); the mix of calls is not that of the screen. Calls follow the shape of the dose curve; as a rule, active = well fitted inhibition curve with a large enough effect; inconclusive = small, poorly fitted or top-dose-only effect; inactive = no such curve, though single readings can be large or run the other way. No potency is given beside an inconclusive call; the fits are too rough.

target: Glucagon-like peptide 1 receptor (Homo sapiens) (UniProt P43220); test: qHTS of GLP-1 Receptor Inverse Agonists (Inhibition Mode); conditions: HEK293 GLP-1R CRE-luciferase, luminescence, 24 h, GLP-1R form is constitutively active; activity change, negative = inhibition: at 38.3 µM (top of the series) unless noted; also: nearly all actives have a fitted effect of over 55% in size
Outline: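 Luminescence readout: a drop in cAMP-driven luciferase signal flags inverse agonism at a constitutively active GLP-1R stably expressed in HEK293. Compound exposure lasted 24 hr at 37 deg C, 5% CO2.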
% is scaled to controls: 0 for no effect and ±100 for the full control effect; potency is read from the fitted curve at half-maximal effect; tags tell the direction and shape of the fitted curve.

Chain of UniProt P43220 (P43220 whole entry, looked up): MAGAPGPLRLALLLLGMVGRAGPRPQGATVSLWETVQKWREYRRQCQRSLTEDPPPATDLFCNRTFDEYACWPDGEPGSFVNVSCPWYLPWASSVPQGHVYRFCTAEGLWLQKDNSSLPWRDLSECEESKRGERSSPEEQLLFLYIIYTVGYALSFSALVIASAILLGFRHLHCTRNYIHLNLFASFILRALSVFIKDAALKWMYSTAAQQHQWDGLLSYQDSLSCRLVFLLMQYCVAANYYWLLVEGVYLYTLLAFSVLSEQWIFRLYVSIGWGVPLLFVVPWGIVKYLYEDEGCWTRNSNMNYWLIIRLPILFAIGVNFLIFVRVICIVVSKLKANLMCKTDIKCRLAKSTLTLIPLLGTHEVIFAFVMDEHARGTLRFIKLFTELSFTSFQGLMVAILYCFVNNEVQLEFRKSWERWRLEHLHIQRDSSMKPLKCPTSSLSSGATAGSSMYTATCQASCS

Row | Structure (SMILES) | Potency | activity change, negative = inhibition
1 | CC(C)c1ccc(NC(=O)C2CCN(C(=O)c3ccc(F)cc3)CC2)cc1 | inconclusive [inhibitor, partial curve, poor fit] | –
2 | CCOC(=O)c1cccc(NC(=O)Cn2cc3c(n2)CCC(C)C3)c1 (stereo not drawn) | inconclusive [inhibitor, single point] | –
3 | CSc1ccc(OC2CCCCC2NS(=O)(=O)c2ccc(Cl)cc2)cc1 (stereo not drawn) | inconclusive [inhibitor, partial curve, poor fit] | –
4 | Cc1c(C(=O)OCc2ccccc2)[nH]c2c1C(=O)CC(c1ccc(C(C)(C)C)cc1)C2 (stereo not drawn) | inactive | –
5 | COc1cccc(C=NCC(C)N=Cc2cccc(OC)c2O)c1O (stereo not drawn) | inactive | –
6 | CCN1CCN(C(=O)c2ccc(CN(c3ccccc3)S(=O)(=O)c3ccccc3)cc2)CC1 | inconclusive [inhibitor, single point] | –
7 | CCNC(=O)Nn1c(C)nnc1C | inactive | –
8 | COc1ccc(-c2nn3c(C4CCCCC4)nnc3s2)cc1OC | inactive | –
9 | CC(OC(=O)c1cc(=O)[nH]c2ccccc12)C(=O)NC1CCCCC1C (stereo not drawn) | inactive | –
10 | O=S(=O)(NCC(c1ccc2c(c1)OCO2)N1CCOCC1)c1ccc(Br)cc1 (stereo not drawn) | inconclusive [inhibitor, single point] | –
11 | COc1ccc(C(=O)C[n+]2cccc3cc(C)ccc32)cc1 | inactive | –
12 | Cc1nc2ccccc2cc1OCc1ccc(Cl)cc1 | inconclusive [inhibitor, single point] | –
13 | CCN(Cc1ccccc1)C(=O)c1ccc(NC(=O)c2ccc(OC)cc2)cc1 | inconclusive [inhibitor, partial curve, poor fit] | –
14 | Cc1ccc(-c2nc(C)c(CCNC(=O)c3cccs3)s2)cc1 | inconclusive [inhibitor, single point] | –
15 | CC(=O)Nc1cccc(NC(=O)c2ccccc2OCc2ccccc2)c1 | inconclusive [inhibitor, single point] | –
16 | CN(C)c1ccc(C=C2SC(=S)N(Cc3ccco3)C2=O)cc1 | inactive | –
17 | COc1ccc(OCC(=O)NC2CCSc3ccccc32)cc1 (stereo not drawn) | inconclusive [inhibitor, single point] | –
18 | COc1cc(NC(=O)c2ccc(NS(=O)(=O)c3c(C)noc3C)cc2)cc(OC)c1 | inconclusive [inhibitor, single point] | –
19 | O=C1[C@H]2[C@@H](c3ccc(Cl)cc3)N3C(=O)N(c4cccc(Cl)c4)C(=O)[C@@]3(Cc3ccccc3)[C@H]2C(=O)N1C1CCCCC1 | inconclusive [inhibitor, full curve, poor fit] | –
20 | CCN(CC)C(=O)C1=C(C)N(Cc2ccc(F)cc2)C(=O)C(CC(=O)NCCCCc2ccccc2)C1 (stereo not drawn) | inconclusive [inhibitor, single point] | –
21 | CCOc1ccc(CCNC(=O)c2ccc(OCc3c(C)noc3C)cc2)cc1OCC | inconclusive [inhibitor, partial curve, poor fit] | –
22 | CCOC(=O)c1cnc2c(CC)cccc2c1NCCN1CCOCC1 | inconclusive [inhibitor, single point] | –

Row | Structure (SMILES) | Potency | activity change, negative = inhibition
23 | COc1ccc(-c2nnc(N3CCOCC3)c3ccccc23)cc1 | inactive | –
24 | COc1ccc(C(=O)NC(=S)N(CCC(C)C)c2c(N)n(Cc3ccccc3)c(=O)[nH]c2=O)cc1 | inconclusive [inhibitor, single point] | –
25 | Cc1cc(/C=C2\NC(=S)N(C)C2=O)ccc1N1CCCC1 | inactive | –
26 | CC(C)C(NC(=O)CCNC(=O)c1ccc(C(C)(C)C)cc1)c1nc2ccccc2[nH]1 (stereo not drawn) | inconclusive [inhibitor, full curve] | –
27 | CC1CCCCN1C(=O)CSc1ccc(-c2ccc(F)cc2)nn1 (stereo not drawn) | inconclusive [inhibitor, single point] | –
28 | COc1ccccc1N1CCN(CCCOc2ccc(F)cc2)CC1 | inconclusive [inhibitor, partial curve, poor fit] | –
29 | Fc1ccccc1Cc1noc(CN2CCN(c3ccc(Cl)cn3)CC2)n1 | inconclusive [inhibitor, single point] | –
30 | Cc1cccc(-c2nc(CN3CCCC(C(=O)N4CCN(c5cc(Cl)ccc5C)CC4)C3)c(C)o2)c1 (stereo not drawn) | inconclusive [inhibitor, partial curve, poor fit] | –
31 | CCOc1ccc(CN2CCN(C(=O)c3ccccc3)CC2)cc1 | inactive | –
32 | CC1CCc2c(C(=O)Nc3ccccn3)csc2C1 (stereo not drawn) | inconclusive [inhibitor, single point] | –
33 | COC(=O)[C@]12CCCCC=C1N(Cc1cccc3ccccc13)C(=O)[C@H](CC(=O)N1CCN(C(=O)c3ccco3)CC1)C2 | inconclusive [inhibitor, single point] | –
34 | CCOC(=O)N/N=C/c1c(C)nn(-c2cccc(C(F)(F)F)c2)c1Cl | inconclusive [inhibitor, full curve, poor fit] | –
35 | O=C(CSc1nnc(Cn2cnc3ccccc32)o1)c1ccccc1 | inconclusive [inhibitor, single point] | –
36 | CCOC(=O)c1cnc2cc(C(F)(F)F)ccc2c1Nc1ccc(F)cc1F | inactive | –
37 | CCC(=O)N1CCc2cc(CNS(=O)(=O)c3cc(OC)ccc3OC)ccc21 | inactive | –
38 | CCN(CC)CC(=O)Nc1ccc(-c2nc3cc(NC(=O)CN(CC)CC)ccc3o2)cc1 | inactive | –
39 | CCN(CC)CCN1C(=O)c2cccc3cc(N)cc(c23)C1=O | – | inconclusive: -90.1% [inhibitor]
40 | Cc1ccc(S(=O)(=O)NCC2CCC(C(=O)NCCc3ccccc3)CC2)cc1 (stereo not drawn) | inactive | –
41 | CCc1nc2ccc(C(=O)N3CCN(c4cc(Cl)ccc4C)CC3)cc2nc1CC | inconclusive [inhibitor, partial curve, poor fit] | –
42 | CCOc1ccc(-c2c[n+]3c(n2-c2ccccc2)CCCCC3)cc1 | inconclusive [inhibitor, partial curve] | –
43 | CN(Cc1ccccc1)C(CNS(=O)(=O)c1ccccc1)c1ccccc1 (stereo not drawn) | inconclusive [inhibitor, single point] | –
